Laboratory results: PubChem BioAssay AID624417 (National Center for Advancing Translational Sciences (NCATS), 2012)
The campaign covered roughly 410,000 compounds. About 6,400 (1.6%) were called active. The inconclusive results got no clear call from the source; some entries with a clear call stand among them for comparison. Calls come from the whole dose curve; as a rule, active = well fitted inhibition curve with a large enough effect; inconclusive = small, poorly fitted or top-dose-only effect; inactive = no such curve, though single readings can be large or run the other way. No potency is given beside an inconclusive call; the fits are too rough.

Each compound was assayed against Glucagon-like peptide 1 receptor (Homo sapiens) (UniProt P43220) (assay: qHTS of GLP-1 Receptor Inverse Agonists (Inhibition Mode)). Conditions: HEK293 GLP-1R CRE-luciferase, luminescence, 24 h, GLP-1R form is constitutively active; activity change, negative = inhibition: at 38.3 µM (top of the series) unless noted.
Outline: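 GLP-1R inverse agonism mode: basal reporter luminescence in engineered HEK293 cells measured after one day of compound exposure at 37 deg C, with a 12 min room-temperature detection step.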
% is set by controls: 0 for no effect and ±100 for the full control effect; potency is the fitted concentration of half-maximal effect; tags give direction and shape of the fitted curve.
Note: nearly all actives have a fitted effect of over 55% in size.

Sequence of UniProt P43220 (P43220 whole entry, looked up): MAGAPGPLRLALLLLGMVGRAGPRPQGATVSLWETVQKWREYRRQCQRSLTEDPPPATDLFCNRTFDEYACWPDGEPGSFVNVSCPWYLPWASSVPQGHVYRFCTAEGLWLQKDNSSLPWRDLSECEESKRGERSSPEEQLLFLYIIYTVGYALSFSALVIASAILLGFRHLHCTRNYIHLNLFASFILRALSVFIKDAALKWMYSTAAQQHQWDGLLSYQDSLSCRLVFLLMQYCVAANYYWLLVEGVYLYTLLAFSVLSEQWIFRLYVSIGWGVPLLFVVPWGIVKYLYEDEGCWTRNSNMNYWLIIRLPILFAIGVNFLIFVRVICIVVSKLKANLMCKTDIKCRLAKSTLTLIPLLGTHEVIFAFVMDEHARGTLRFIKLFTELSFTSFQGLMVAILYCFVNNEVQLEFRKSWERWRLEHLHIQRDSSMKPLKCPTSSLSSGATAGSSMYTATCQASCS

SMILES	Potency	activity change, negative = inhibition
Cc1cc(C)n(-c2nc(NCCCN(C)C)c3c4c(sc3n2)COC(C)(C)C4)n1	inconclusive [inhibitor, partial curve, poor fit]	
Cc1ccc(O)c(C(CC(=O)NCc2ccco2)c2ccccc2)c1 (stereo not drawn)	inconclusive [inhibitor, single point]	
Cc1cccn2c(=O)c(/C=C(\C#N)C(=O)NCc3ccco3)c(N3CCCCCC3)nc12	inconclusive [inhibitor, single point]	
Cc1ccc(C)c(NC(=O)CN(C)C(=O)Cc2coc3cc(C)c(C)cc23)c1	inconclusive [inhibitor, full curve, poor fit]	
Cc1ccc(OCC(=O)Nc2ccc3oc(=O)ccc3c2)c(C)c1	inconclusive [inhibitor, single point]	
O=C(Nc1cccc(Cl)c1)c1ccc(F)c(S(=O)(=O)N2CCN(c3ccccn3)CC2)c1	inconclusive [inhibitor, partial curve, poor fit]	
Cc1ccc(S(=O)(=O)N2CCCC(C(=O)NCCC(C)C)C2)cc1 (stereo not drawn)	inconclusive [inhibitor, partial curve, poor fit]	
O=C(CCCn1c(=S)[nH]c2ccsc2c1=O)Nc1ccc(F)cc1		inactive: 25%
CN1CCc2nc3sc(C(=O)Nc4ccccc4C(F)(F)F)c(N)c3cc2C1		inactive: 8.77%
CC12CCC(C(=O)Nc3nc4ccc(Br)cc4s3)(OC1=O)C2(C)C (stereo not drawn)	inconclusive [inhibitor, partial curve, poor fit]	
COc1ccc(CN2CCNC(=O)C2CC(=O)NC2CCCC2)c(C)c1C (stereo not drawn)	inconclusive [inhibitor, full curve, poor fit]	
O=c1c2ccccc2nc(-c2ccco2)n1Cc1ccccc1	inconclusive [inhibitor, single point]	
CCOC(=O)c1[nH]c2cc3c(cc2c1NC(=O)CN1CCc2ccccc2C1)OCO3	inconclusive [inhibitor, full curve]	
O=Cc1ccccc1OCc1ccc2c(c1)OCO2	inconclusive [inhibitor, partial curve, poor fit]	
C/C(=N/Nc1ccc(C)cc1)C1(C)N(O)C(C)(C)C(c2ccco2)=[N+]1[O-] (stereo not drawn)	inconclusive [inhibitor, full curve]	
Cc1nc2scc(C)n2c(=O)c1S(=O)(=O)Nc1cccc(C(F)(F)F)c1	active: 11.2 µM	
Cc1nc2cc(-c3ccccc3)sc2c(=O)n1N	inconclusive [inhibitor, full curve, poor fit]	
COc1cc(C2C(C(=O)c3ccc(C)o3)=C(O)C(=O)N2c2cc(C)on2)cc(Br)c1O (stereo not drawn)		inactive: -19.3%
O=C1C(F)=CC(COC(c2ccccc2)(c2ccccc2)c2ccccc2)OC1n1cc(F)c(=O)[nH]c1=O (stereo not drawn)	inconclusive [inhibitor, full curve, poor fit]	
Cc1ccc2cc(CN(CC(C)C)S(=O)(=O)c3ccccc3)c(=O)[nH]c2c1	inconclusive [inhibitor, partial curve, poor fit]	
CN1/C(=C/c2cc[n+](C)c3ccccc23)C=Cc2ccccc21	inconclusive [inhibitor, partial curve, poor fit]	

SMILES	Potency	activity change, negative = inhibition
Clc1ccc(Nc2ncnc3c2cnn3-c2ccccc2)cc1	inconclusive [inhibitor, single point]	
CCOc1cccc(-c2nn(-c3ccccc3)cc2/C=C(/C#N)C(=O)NCCCn2ccnc2)c1	inconclusive [inhibitor, partial curve, poor fit]	
Cn1cc(C(=O)NCCc2ccc(Cl)cc2)c(=O)c2cc(S(=O)(=O)N3CCCCC3)ccc21		inactive: 0%
COc1ccc(N2CCN(C(=O)Cn3nc(Cc4cccnc4)c4ccccc4c3=O)CC2)cc1		inactive: 6.02%
COc1ccc(N2CCN(CC(O)COc3cc(C)ccc3C)CC2)cc1 (stereo not drawn)	inconclusive [inhibitor, partial curve, poor fit]	
COc1ccccc1CNC(=O)c1cnc2sc(N3CCOCC3)nn2c1=O		inactive: 10.1%
O=C(Nc1ccccc1N1CCOCC1)c1cc(-c2ccco2)nc2ccccc12	inconclusive [inhibitor, single point]	
Cc1ccc(-n2c(Cc3noc4ccccc34)n[nH]c2=S)cc1		inactive: -11.3% [at 0.307 µM]
C[C@@H]1CN([C@H](C)CO)C(=O)CCCn2nncc2CO[C@@H]1CN(C)C(=O)c1ccc(N2CCN(C)CC2)cc1		inactive: 9.63%
CNC(=O)c1[nH]cnc1C(=O)Nc1ccc(OC)cc1		inactive: 23.4%
O=S(=O)(c1ccc(SCCOc2cccc(Br)c2)nc1)N1CCCC1	inconclusive [inhibitor, partial curve, poor fit]	
CCOC(=O)C1=CN(CC)S(=O)(=O)NC1CCc1ccccc1 (stereo not drawn)	inconclusive [inhibitor, partial curve, poor fit]	
O=C(Oc1ccnc2cc(Cl)ccc12)N1CCCCCC1	inconclusive [inhibitor, partial curve, poor fit]	
COc1ccccc1Nc1ncc(C(=O)Nc2ccc(OC)c(OC)c2)c2ccccc12	inconclusive [inhibitor, single point]	
Cc1cc(OCC(=O)NNC(=O)c2ccncc2)cc(C)c1Cl		inactive: 5.25%
Cc1ccc2c(c1)c(=O)c(S(=O)(=O)c1ccc(C)c(C)c1)cn2CC(=O)Nc1ccccc1		inactive: -9.88%
Cc1ccccc1C(=O)Oc1ccc(Br)cc1C(=S)N1CCCC1	inconclusive [inhibitor, partial curve, poor fit]	
COc1ccc(CNC(=O)c2cccc(-c3ccc(C)c4ccccc34)n2)cc1	inconclusive [inhibitor, single point]	
Cc1ccc(N2CC(C(=O)Nc3ccc(C)c(S(=O)(=O)N(C)C)c3)CC2=O)cc1 (stereo not drawn)	inconclusive [inhibitor, partial curve, poor fit]	
O=C(CCCSc1nc2ccccc2[nH]1)NCc1ccccc1F	inconclusive [inhibitor, single point]	
Cc1cccc2c1N(CCCOc1ccc(C(C)(C)C)cc1)C(=O)C2=O	inconclusive [inhibitor, single point]	

SMILES	Potency	activity change, negative = inhibition
O=C(Nc1ccc(CN2CCCCC2)cc1)Nc1ccccc1Cl	inconclusive [inhibitor, single point]	
CCc1cccc(C)c1NC(=O)C1=C(C)C(=O)OC12CCC(C)CC2 (stereo not drawn)		inactive: -5.32%
COCCNCCCCOc1c(Cl)cc(C)cc1Br	inconclusive [inhibitor, single point]	
CCn1c(C(=O)N2CCCC(C(=O)NCCCc3ccccc3)C2)cc2sccc21 (stereo not drawn)	inconclusive [inhibitor, partial curve, poor fit]	
O=C(N/N=C/c1ccc(O)cc1)c1[nH]c2ccc(Br)cc2c1-c1ccccc1	inconclusive [inhibitor, full curve, poor fit]	
CCCn1c(-c2ccccc2)nc2c(=O)n(C)c(=O)[nH]c21		inactive: 0.418%
Cc1ccc(NC(=S)N(Cc2ccc(Br)cc2)Cc2ccc(C(=O)O)cc2)cc1C		inactive: -25%
CNC(=S)N/N=C/c1c(C)nn(-c2ccc(F)cc2)c1Cl	inconclusive [inhibitor, single point]	
N=c1ccn2c(n1)OC1C(O)C(CO)OC12 (stereo not drawn)	inconclusive [inhibitor, full curve, poor fit]	
CCN(Cc1ccccc1)C(=O)c1ccc(C)c(S(=O)(=O)N2CCCCC2)c1	inconclusive [inhibitor, single point]	
CC1(C)CC(=O)C([N+](=O)[O-])=C(NCCCC(=O)O)C1		inactive: 13%
O=C(NCCNc1ccc([N+](=O)[O-])cc1C(F)(F)F)c1ccccc1F	inconclusive [inhibitor, single point]	
COc1ccc(C(=NNc2ccccc2C(=O)O)c2ccc(OC)cc2)cc1	inconclusive [inhibitor, partial curve, poor fit]	
CCc1cc(C(N)=O)c(NC(=O)c2ccc(OC)cc2)s1	inconclusive [inhibitor, single point]	
Cc1ccccc1C(=O)OCC(=O)NCC1COc2ccccc2O1 (stereo not drawn)	inconclusive [inhibitor, partial curve, poor fit]	
Cc1ccc(N/C(N)=N/c2nc(CSc3nnc(C)s3)cc(=O)[nH]2)c(C)c1	inconclusive [inhibitor, full curve]	
O=C(CCC(=O)N1CCOc2ccccc21)NCCCc1ccccc1	inconclusive [inhibitor, single point]	
COc1ccc(Cl)cc1NC(=O)CN(C)C(=O)c1cc(-c2cccs2)nn1-c1ccccc1	inconclusive [inhibitor, partial curve, poor fit]	
O=C1NC[C@H](Cc2ccccc2)N(C[C@H]2CCCN2C[C@H](Cc2ccccc2)N2C[C@H](Cc3ccccc3)N(CC3CCCCC3)C(=O)C2=O)C1=O	inconclusive [inhibitor, single point]	
COc1ccc(CCNC(=O)c2ccc(Cl)c(S(=O)(=O)N3CCCCCC3)c2)cc1	inconclusive [inhibitor, partial curve, poor fit]	
CCCc1cc(C(=O)Nc2ccc(F)c(Cl)c2)no1	inconclusive [inhibitor, partial curve, poor fit]	
